The text below walks through data of PMC4242493.

This is one part of the list. The list includes weakly bound sequences.

The assay deals with MaxL homodimer (UniProt P61244). Kind of assay: universal protein-binding microarray (PBM). The following applies: PBS-based mixture, 10 nM His-tagged protein dimer, 2% milk, 200 ng/uL BSA, 50 ng/uL salmon testes DNA, 0.02% TX-100; detection with Alexa 488 anti-His …; high values mean tight binding; most listed sequences are background and not binding sites; double strand, one strand shown.
UniProt P61244, sequence (P61244 whole entry): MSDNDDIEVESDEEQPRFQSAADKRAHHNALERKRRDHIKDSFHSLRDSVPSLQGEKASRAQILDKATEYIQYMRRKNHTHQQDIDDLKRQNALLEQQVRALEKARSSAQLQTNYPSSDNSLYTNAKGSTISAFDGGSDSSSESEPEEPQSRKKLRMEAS
Regarding ACAATAGT, the binding signal (normalized occupancy) came to 0.0756.
In the case of AGACCGCT, the binding signal (normalized occupancy) is 0.0688.
For the sequence GATTTACA, the binding signal (normalized occupancy) was 0.0751.
For CACATTTC, the binding signal (normalized occupancy) stood at 0.0859.
Regarding TATCGGAA, the binding signal (normalized occupancy) came out at 0.0713.
Take GTTCAGCA: the binding signal (normalized occupancy) was determined as 0.0774.
The same measure for CCCACCCA: 0.0925.
CTCAAACC: the binding signal (normalized occupancy) was determined as 0.0697.
AAGTGCCT: the binding signal (normalized occupancy) came to 0.0697.
Turning to CATACGCG, the binding signal (normalized occupancy) was 0.0762.
As to AGTTGAAA, the binding signal (normalized occupancy) was 0.0727.
With CATCCGAG, the binding signal (normalized occupancy) came to 0.075.
The same measure for AGCCGCGC: 0.0718; for AAGACAGC: 0.0706; for CATAGCCA: 0.0772.
For the sequence GGTCATCA, the binding signal (normalized occupancy) was determined as 0.0816.
The same measure for CGGTGTCC: 0.0657.
As to CTTACCGA, the binding signal (normalized occupancy) was found to be 0.0699.
With TATAACGA, the binding signal (normalized occupancy) stood at 0.0877.
The same measure for GAATCTCA: 0.0722; for CCCCCGCG: 0.0757.
Turning to TAGATCGA, the binding signal (normalized occupancy) was 0.0715.
Consider CGTCAGCC, for which the binding signal (normalized occupancy) was found to be 0.0718.
In the case of AGCATGAT, the binding signal (normalized occupancy) turned out to be 0.107.
Take AGGGCTGG: the binding signal (normalized occupancy) was found to be 0.0696.
With CTCGATGC, the binding signal (normalized occupancy) turned out to be 0.0799.
With GATATTCC, the binding signal (normalized occupancy) amounted to 0.0765.
As for GCAGGTCA, the binding signal (normalized occupancy) amounted to 0.0727.
For the sequence GCTTGCCA, the binding signal (normalized occupancy) was 0.073.
In the case of CCGCGCGA, the binding signal (normalized occupancy) turned out to be 0.0729.
For GTCGTCGA, the binding signal (normalized occupancy) turned out to be 0.0712.
In the case of TACTACTA, the binding signal (normalized occupancy) amounted to 0.0799.
On to CCTGAAGC, for which the binding signal (normalized occupancy) was 0.0737.
Turning to GTTTGGCA, the binding signal (normalized occupancy) stood at 0.0715.
The same measure for ATCCAAAG: 0.0737; for CCACAAAC: 0.0719.
The same measure for GCATACCA: 0.0835; for CTTCGCGA: 0.0686.
For the sequence ATGGACAC, the binding signal (normalized occupancy) stood at 0.0819.
The same measure for GCACCGAA: 0.0732.
Consider ACCAAGGG, for which the binding signal (normalized occupancy) worked out at 0.0735.
With ATGACACG, the binding signal (normalized occupancy) is 0.0936.
For the sequence CCACTGGA, the binding signal (normalized occupancy) turned out to be 0.0734.
As for TCCCTGAA, the binding signal (normalized occupancy) came to 0.0722.
With TAGAACGA, the binding signal (normalized occupancy) is 0.0797.
As for AGCTTTTC, the binding signal (normalized occupancy) worked out at 0.0666.
For the sequence GACAACAA, the binding signal (normalized occupancy) amounted to 0.0712.
Consider CGTTTACC, for which the binding signal (normalized occupancy) was 0.0763.
As to GTTGTTGA, the binding signal (normalized occupancy) was 0.0769.
As to AAAGTCGT, the binding signal (normalized occupancy) turned out to be 0.0747.
The same measure for CGGCTAAC: 0.0721.
With AGGATAAT, the binding signal (normalized occupancy) was 0.0834.
For GGCGAGTA, the binding signal (normalized occupancy) is 0.075.
Turning to CCACCGCA, the binding signal (normalized occupancy) stood at 0.0786.
Consider AAAGTTAG, for which the binding signal (normalized occupancy) stood at 0.0752.
The same measure for GATGCAGC: 0.0712; for ACAAATCC: 0.0777; for CGTGATAG: 0.0851.
As for ATGTAAAA, the binding signal (normalized occupancy) is 0.084.
As for ACGTCCTA, the binding signal (normalized occupancy) was 0.0771.
As to CACACAAG, the binding signal (normalized occupancy) worked out at 0.0774.
As for GAATCACC, the binding signal (normalized occupancy) came to 0.0755.
For ACCAGCTA, the binding signal (normalized occupancy) stood at 0.072.
Take TCTGTAAA: the binding signal (normalized occupancy) stood at 0.085.
Take ATATACGA: the binding signal (normalized occupancy) worked out at 0.0856.
On to ACAGGATG, for which the binding signal (normalized occupancy) was determined as 0.0777.
In the case of CTGGGGGA, the binding signal (normalized occupancy) was 0.0753.
For the sequence GAATAATA, the binding signal (normalized occupancy) turned out to be 0.0768.
The same measure for GGGATTGA: 0.0725; for GATTAAGA: 0.0776.
On to CGGCGCTC, for which the binding signal (normalized occupancy) amounted to 0.0662.
In the case of ATCTTGTG, the binding signal (normalized occupancy) was found to be 0.0791.
For the sequence AGGAGGCG, the binding signal (normalized occupancy) is 0.074.
As to GACTGATC, the binding signal (normalized occupancy) turned out to be 0.0781.
Take AAGTAGCG: the binding signal (normalized occupancy) is 0.0711.
Consider CACGTAAA, for which the binding signal (normalized occupancy) amounted to 0.0805.
Consider CTATCCCA, for which the binding signal (normalized occupancy) was found to be 0.0839.
Turning to TACCTAAA, the binding signal (normalized occupancy) turned out to be 0.0813.
On to AGGCGATG, for which the binding signal (normalized occupancy) worked out at 0.0735.
With GAGCCCGC, the binding signal (normalized occupancy) amounted to 0.0735.
As for CATGGACA, the binding signal (normalized occupancy) was 0.0901.
For GACACGCA, the binding signal (normalized occupancy) was found to be 0.0852.
On to ATGGCTGC, for which the binding signal (normalized occupancy) amounted to 0.0809.
On to GTGCGACA, for which the binding signal (normalized occupancy) turned out to be 0.0807.
Regarding CTCGTATA, the binding signal (normalized occupancy) worked out at 0.081.
In the case of GATTGAGC, the binding signal (normalized occupancy) was 0.0709.
The same measure for CTGACATA: 0.0799; for CATTACTA: 0.0827; for TAGCTTAA: 0.0705.
For GCTGTACC, the binding signal (normalized occupancy) was determined as 0.0765.
The same measure for AGACACAC: 0.0877; for TAACGTTA: 0.0831.
The same measure for CATAGGCG: 0.0751.
On to TCCATGAA, for which the binding signal (normalized occupancy) was found to be 0.0812.
For AGTGGCAC, the binding signal (normalized occupancy) amounted to 0.0792.
In the case of ACAACCAG, the binding signal (normalized occupancy) amounted to 0.0757.
For the sequence ATGCAAGG, the binding signal (normalized occupancy) was found to be 0.0775.
As to GCGCAAGC, the binding signal (normalized occupancy) amounted to 0.067.
On to GAGTGCCC, for which the binding signal (normalized occupancy) is 0.073.
Regarding CGTGAACC, the binding signal (normalized occupancy) was 0.0826.
ACGTACAC: the binding signal (normalized occupancy) came out at 0.0898.
Turning to CCGCTTCC, the binding signal (normalized occupancy) came to 0.0681.
Consider AATTTTAA, for which the binding signal (normalized occupancy) was found to be 0.0705.
For CAAGTGGG, the binding signal (normalized occupancy) is 0.0807.
With CCCATTAG, the binding signal (normalized occupancy) was determined as 0.0712.
The same measure for GTCCAAAA: 0.0756.
The same measure for ACCCGGTC: 0.0691; for CGATAATA: 0.0797; for ACTGGATA: 0.0777.
For CATGCGGC, the binding signal (normalized occupancy) stood at 0.121.
GTCTCATA: the binding signal (normalized occupancy) came to 0.0789.
Turning to ATGCCCAC, the binding signal (normalized occupancy) is 0.0905.
For the sequence GACGCATC, the binding signal (normalized occupancy) stood at 0.077.
In the case of GCGAAGCA, the binding signal (normalized occupancy) was determined as 0.0713.
ACTCGATC: the binding signal (normalized occupancy) came to 0.0786.
As for AGAACATA, the binding signal (normalized occupancy) came out at 0.0821.
In the case of AACCGAGG, the binding signal (normalized occupancy) worked out at 0.0687.
The same measure for AACCAAAT: 0.0734.
As to CACGTAGG, the binding signal (normalized occupancy) came to 0.0797.
As for ATCGCAAT, the binding signal (normalized occupancy) was 0.0728.
Regarding AATGTAGA, the binding signal (normalized occupancy) is 0.0767.
In the case of AGCACAGA, the binding signal (normalized occupancy) was found to be 0.0742.
In the case of GTGCGAAA, the binding signal (normalized occupancy) was found to be 0.0824.
Regarding TAAAATGA, the binding signal (normalized occupancy) came to 0.0795.
The same measure for ACCGCCCT: 0.0752; for AGCCTGAT: 0.0779.
Turning to ATAGCTAT, the binding signal (normalized occupancy) was determined as 0.0702.
For the sequence CAAGGAGG, the binding signal (normalized occupancy) is 0.0717.
With CACTCTCG, the binding signal (normalized occupancy) was 0.0812.
As to CGATCAAA, the binding signal (normalized occupancy) worked out at 0.0744.
Turning to AGGGAGGG, the binding signal (normalized occupancy) amounted to 0.0739.
The same measure for ATATGCTC: 0.0928; for CAAATACG: 0.0758; for ACAACCGG: 0.0717.
AAGCTCGC: the binding signal (normalized occupancy) is 0.067.
The same measure for GCAAACAC: 0.0816.
With GCTGCAGC, the binding signal (normalized occupancy) was 0.072.
In the case of CTTGTTAC, the binding signal (normalized occupancy) stood at 0.0797.
Consider ACCCTTTA, for which the binding signal (normalized occupancy) was determined as 0.0786.
Regarding ACCTGGGG, the binding signal (normalized occupancy) stood at 0.0778.
The same measure for CCCGGACA: 0.0712; for AAGGTGTC: 0.0775; for ATCCGCTC: 0.071.
The same measure for AATAGGGG: 0.0818; for CCGGGGGA: 0.0691; for AGAACAGC: 0.0777.
As to ATGATGGG, the binding signal (normalized occupancy) was 0.0867.
In the case of GTATTCCA, the binding signal (normalized occupancy) was 0.0796.
On to ATGACCAG, for which the binding signal (normalized occupancy) was determined as 0.0794.
For the sequence CCCGATAA, the binding signal (normalized occupancy) worked out at 0.0745.
For the sequence AACCTCAA, the binding signal (normalized occupancy) turned out to be 0.0765.
Take ATAGGCTC: the binding signal (normalized occupancy) was found to be 0.078.
With GATGAGGA, the binding signal (normalized occupancy) turned out to be 0.0774.
As for CGAATATA, the binding signal (normalized occupancy) was 0.0813.
Turning to ACCGGACA, the binding signal (normalized occupancy) stood at 0.0727.
In the case of ACAGAGTC, the binding signal (normalized occupancy) was 0.0714.
For GAAGCCCC, the binding signal (normalized occupancy) was found to be 0.0705.
With AACCCCTA, the binding signal (normalized occupancy) came to 0.0777.
With TCCGGAAA, the binding signal (normalized occupancy) was determined as 0.0699.
For the sequence CGACAGAA, the binding signal (normalized occupancy) stood at 0.0718.
The same measure for ATTTCATG: 0.0821; for CTTTGGGC: 0.0716; for TGAGTAAA: 0.0765.
Take CTACAGAC: the binding signal (normalized occupancy) worked out at 0.0772.
Turning to CTCTTCTC, the binding signal (normalized occupancy) was determined as 0.073.
The same measure for AAGATGAA: 0.0768.
For ACAGGGCC, the binding signal (normalized occupancy) amounted to 0.0673.
In the case of GCATCGAA, the binding signal (normalized occupancy) was 0.075.
As for GATTACTA, the binding signal (normalized occupancy) worked out at 0.0818.
Regarding CCGTCCAC, the binding signal (normalized occupancy) came to 0.0751.
Turning to AGAGAGAG, the binding signal (normalized occupancy) turned out to be 0.075.
On to CGGATCCG, for which the binding signal (normalized occupancy) is 0.0639.
